# According to PMC6919601, “Identification of Plasmodium dipeptidyl aminopeptidase allosteric inhibitors by high throughput screening” (PLoS ONE, 2019):
# Screen size: about 110,000 compounds; about 230 (0.21%) showed an effect of 50% or more. The list shows a part of the results.
# Target: DPAP1 (Plasmodium falciparum, UniProt Q8IIJ9)
# Experiment: primary screen, percent inhibition; read by cleavage of a fluorogenic dipeptide substrate; higher = more effect of the substance
# Design: species or system P. falciparum D10 trophozoite lysates; single well
# 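Further: 30 min substrate incubation versus DMSO and 10 µM JCP410 controls.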
# Sequence of DPAP1 (Q8IIJ9 whole entry, looked up): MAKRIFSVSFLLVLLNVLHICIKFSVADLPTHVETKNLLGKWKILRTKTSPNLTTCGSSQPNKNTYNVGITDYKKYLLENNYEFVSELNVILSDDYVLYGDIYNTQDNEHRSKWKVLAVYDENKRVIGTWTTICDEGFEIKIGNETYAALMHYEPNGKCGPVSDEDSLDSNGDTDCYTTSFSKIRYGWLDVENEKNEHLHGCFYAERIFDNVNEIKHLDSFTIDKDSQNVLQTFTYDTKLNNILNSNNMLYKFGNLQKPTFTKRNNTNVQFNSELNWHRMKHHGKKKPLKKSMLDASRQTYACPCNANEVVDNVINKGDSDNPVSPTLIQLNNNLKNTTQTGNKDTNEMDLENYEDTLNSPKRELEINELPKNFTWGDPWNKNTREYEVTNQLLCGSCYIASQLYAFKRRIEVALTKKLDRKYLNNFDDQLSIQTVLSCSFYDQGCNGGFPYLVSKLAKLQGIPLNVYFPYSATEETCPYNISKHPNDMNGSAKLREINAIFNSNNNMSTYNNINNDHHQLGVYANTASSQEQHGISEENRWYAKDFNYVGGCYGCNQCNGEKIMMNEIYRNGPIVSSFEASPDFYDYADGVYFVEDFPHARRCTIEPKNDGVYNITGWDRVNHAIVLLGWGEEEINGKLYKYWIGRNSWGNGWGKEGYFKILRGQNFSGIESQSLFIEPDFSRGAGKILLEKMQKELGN
row,SMILES,% Inhibition @ 10 uM [%]
1,Cc1ccc2nc3c(cc(C#N)c(=N)n3CCc3ccccc3)c(=O)n2c1,-1.47
2,C=CCc1cc(/C=C2/C(=N)N3C(c4ccccc4)=CSC3=NC2=O)cc(OC)c1O,-5.87
3,CCOC(=O)c1c(NC(=O)c2cc(-c3ccc(F)cc3)on2)sc2c1CCCC2,-1.96
4,Cc1noc(C(=O)NC(C)c2ccccc2)c1Cl (stereo not drawn),-5.25
5,CCc1ccc(CNC(=O)c2cnc(SC)nc2C)cc1,3.54
6,N#CCNC(=O)C(CSCc1ccccc1)NC(=O)c1cccc(NC(=O)N2CCN(Cc3ccccc3)CC2)c1 (stereo not drawn),-6.98
7,O=C(NCc1cccc(CNC(=O)c2cnccn2)c1)c1cnccn1,-5.1
8,Cc1oc(-c2ccc(Cl)cc2)nc1CSCC(=O)NC1CCN(Cc2ccccc2)CC1,-2.72
9,Cc1cccc(OCc2nc(C#N)c(NCc3ccc(F)cc3)o2)c1,0.343
10,O=C1CN2CSCC2C(=O)N1Cc1ccccc1 (stereo not drawn),-2.15
11,CCCc1ccc(C(=O)N[C@@H](CC(C)C)C(=O)NCC#N)cc1,-3.04
12,Cc1cccc(NC(=O)CCCOc2ccccc2C)c1,-1.11
13,O=C(CCCN1C(=O)c2ccccc2Sc2ncccc21)NCCc1cccs1,-2.39
14,Cc1cc(C)n(CCc2nc3c4ccccc4nc(O)n3n2)n1,1.5
15,Cn1c(=N)n(CCCOc2ccccc2)c2ccccc21,-3.29
16,COc1cc(C(=O)NCc2nc3ccccc3n2C(C)C)cc(OC)c1OC,-5.67
17,Cc1cccc(NC(=O)CN(c2ccccc2F)S(=O)(=O)c2ccccc2)c1,3.17
18,Cc1ccc(NC2=NC(=O)C(CC(=O)Nc3ccc(C)cc3C)S2)cc1 (stereo not drawn),-14
19,O=C(O)c1c(CNCCc2ccccc2)c2ccccc2n1Cc1ccccc1,19.4
20,O=C1c2ccccc2-c2onc3ccc(Cl)c1c23,5.37
21,CCN1CCCC1CNC(=O)c1ccc(CS(=O)(=O)c2ccccc2C)o1 (stereo not drawn),-2.72
22,O=C(NC(c1ccccc1)c1ccccc1)c1cnc2ccccn2c1=O,-3.44
23,c1ccc(C2COC(c3cccs3)=N2)cc1 (stereo not drawn),2.9
24,CCCCn1cnc2sc(-c3ccccc3)cc2c1=O,1.86
25,CCC1(C)Cc2nc(N)c(C#N)cc2CO1 (stereo not drawn),-3.34
26,CN(C)CCN(Cc1ccccc1)Cc1ccc(F)cc1,-7.02

row,SMILES,% Inhibition @ 10 uM [%]
1,CCc1c(O)n(C2CCCCC2)c(=S)[nH]c1=O,-1.48
2,Cc1cc(O)c(C2=Nc3ccccc3SC(c3ccc([N+](=O)[O-])cc3)C2)c(=O)o1 (stereo not drawn),-0.415
3,N#Cc1ccccc1S(=O)(=O)N1CCC(c2nc(O)c3nnn(Cc4ccccc4)c3n2)CC1,0.401
4,COc1ccc(-c2[nH]nc3c2C(c2ccc(Cl)cc2Cl)C(C#N)=C(N)O3)cc1OC (stereo not drawn),19
5,Cc1ccc(C(=O)Nc2cc(Cl)ccc2C(=O)O)cc1C,7.82
6,Cc1ccc(C(=O)C2=C(O)C(=O)N(c3nc4ccccc4s3)C2c2ccc3c(c2)OCO3)cc1 (stereo not drawn),-6.69
7,CCc1c(O)nc2ccccc2c1O,4.35
8,O=C1CC(c2ccccc2)c2c(ccc3ccccc23)O1 (stereo not drawn),0.565
9,CCCCCC(=O)N(CN1C(=O)c2ccccc2C1=O)c1cccc(C(=O)O)c1,3.92
10,COc1ccc(CCNC(=O)C2CCC(CNS(=O)(=O)c3ccccc3)CC2)cc1OC (stereo not drawn),-4.53
11,Nc1c(-c2ccccc2)cnn1-c1ccc(C(=O)O)cc1,-5.38
12,Cc1c(/C=c2/sc3nc4ccccc4n3c2=O)c2ccccc2n1C,-8.57
13,CCN(CC)c1nc(-c2ccccc2)cc(-c2ccc(Br)cc2)n1,-0.856
14,CC(C)c1nc2sc3c(NCCO)ncnc3c2c2c1CCCC2,5.11
15,CC(C)(C)NC(=O)CSc1nnnn1-c1ccc(C(=O)O)cc1,3.25
16,Cn1c(C(=O)NCc2ccccc2Br)cc2occc21,1.52
17,COc1cc2ccccc2cc1C(=O)Nc1ccc(N2CCOCC2)cc1,-2.53
18,CCn1c(SCC(=O)NCCc2ccccc2)nc2c1c(=O)n(C)c(=O)n2C,-0.68
19,Cc1ccc(-n2ncc(C(=O)O)c2-n2cccc2)cc1,-0.0309
20,COc1ccc(N2C(=O)CC(N3CCN(c4ccccn4)CC3)C2=O)cc1 (stereo not drawn),2.24
21,Cc1nn(C(C)C(=O)NCC(C)c2ccccc2)c(=O)c2c1sc1ccccc12 (stereo not drawn),0.0811
22,CC1=NN(c2ccccc2)C(=O)/C1=C\c1cccc2ccccc12,-3.03
23,O=C(Nc1ccc(Cl)cc1Cl)c1ccccc1Cl,-1.62
24,CCCN1CCC(NCCc2cccc(Cl)c2)CC1,-6
25,COc1ccccc1CNCc1cc(OC)c(OC)cc1OC,-1.24
